Here are results for 42 sequences from article PMC7819943, “Rice protein-binding microarrays: a tool to detect cis-acting elements near promoter regions in rice”.

The other results are listed elsewhere or left out.

The test addresses T1, OsWOX13 (Oryza sativa, UniProt Q5QMM3 1-267).
T1 sequence: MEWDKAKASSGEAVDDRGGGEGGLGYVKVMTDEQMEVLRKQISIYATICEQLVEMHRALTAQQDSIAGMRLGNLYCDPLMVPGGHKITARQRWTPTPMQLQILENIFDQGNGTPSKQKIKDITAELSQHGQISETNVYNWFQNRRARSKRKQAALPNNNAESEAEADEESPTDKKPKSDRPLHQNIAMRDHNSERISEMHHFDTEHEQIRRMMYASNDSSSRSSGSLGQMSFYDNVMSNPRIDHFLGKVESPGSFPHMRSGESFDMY
The experiment in a line: protein-binding microarray (RPBM); PBS, 2% BSA, 51.3 ng/ul salmon testes DNA, 50 uM zinc acetate, 200 nM TF, 25 C, 1 h; high values mean tight binding. Conditions: protein: recombinant; tags: N-terminal polyhistidine and DsRed monomer fusion (pET32a); label: CyDye5-dUTP incorporated in the synthesized complementary strand; 3' TTTTT single-stranded linker to array surface; dsDNA, one strand shown. Summed up: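 Per-feature fluorescence intensity (arbitrary units), read on an Axon 4000B scanner, is the binding signal. Transcription factors carrying an N-terminal polyhistidine tag and DsRed fusion were expressed in E. coli BL21-CodonPlus and purified on Ni–NTA. A custom Agilent array, made double-stranded by primer extension with Cy5-dUTP and blocked with 2% BSA, was incubated with 200 nM protein in PBS, 2% BSA, salmon testes DNA and 50 µM zinc acetate at 25 °C for 1 h and then washed.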
Turning to “TTTAATTGTTATGAACACGACAATGTAATCGGATCATAGACGGAGTCACCTAGTGCAG”, the binding signal was 10100 fluorescence intensity (a.u.).

Take “CGTAAATTACCTAGTGCTTCTTCACACCTTTGAGTGTATGCGGAGTCACCTAGTGCAG”: the binding signal was 27300 fluorescence intensity (a.u.).

As to “TAATAATGATGGATGGATATGTATGCCATATTAAACAATCCGGAGTCACCTAGTGCAG”, the binding signal was 15600 fluorescence intensity (a.u.).

In the case of “CACAAAGATTGTAATTTTGTTCAGTTTGAGGTTCAATTACCGGAGTCACCTAGTGCAG”, the binding signal was 5920 fluorescence intensity (a.u.).

On to “ATTAAACTTTTAATTTTAGCGTGAATTAAACACACCCGAGCGGAGTCACCTAGTGCAG”, for which the binding signal was 18200 fluorescence intensity (a.u.).

On to “AGTCCTAATTGATAGAAAATGTTTAATTTGACCCTAGAATCGGAGTCACCTAGTGCAG”, for which the binding signal was 22100 fluorescence intensity (a.u.).

For the sequence “AATACACATTGACAGATGAGTTAACGCCCGTGACAGGCTGCGGAGTCACCTAGTGCAG”, the binding signal is 20500 fluorescence intensity (a.u.).

On to “CTCTGTAAAATTTGTATATCTGATTTTCCATATGGTCTTGCGGAGTCACCTAGTGCAG”, for which the binding signal is 3760 fluorescence intensity (a.u.).

Consider “TGTTGATTATTGTCTTCTGAAGATGAGCATGCTCTGCTCTCGGAGTCACCTAGTGCAG”, for which the binding signal was 19300 fluorescence intensity (a.u.).

On to “GCTTAATTATTTGGATTGTTTATCACCACTATATATATGTCGGAGTCACCTAGTGCAG”, for which the binding signal was 45700 fluorescence intensity (a.u.).

Regarding “ATAATTTATAAATAAAACTTTTATATATGTGCTATTAACGCGGAGTCACCTAGTGCAG”, the binding signal was 15800 fluorescence intensity (a.u.).

On to “ACTTCGATGATTTGGCTGATCTTGTGGAGAAAGCATTGCGCGGAGTCACCTAGTGCAG”, for which the binding signal was 7180 fluorescence intensity (a.u.).

On to “ATAATTAATCTAAATTTAATACTCCAAATTAACGTCAAACCGGAGTCACCTAGTGCAG”, for which the binding signal is 16200 fluorescence intensity (a.u.).

Take “ATTAAATTACACTCTGTTCATGCAGTTCAGTCGACGTTATCGGAGTCACCTAGTGCAG”: the binding signal is 13100 fluorescence intensity (a.u.).

Regarding “AAGATTACAAATCTTGTGTTTGTCTTGTTGCCACTGCCGCCGGAGTCACCTAGTGCAG”, the binding signal was 4420 fluorescence intensity (a.u.).

With “ATTATGGTAATTAATCACTAATTTTGGACCAGAGATTCGGCGGAGTCACCTAGTGCAG”, the binding signal is 29400 fluorescence intensity (a.u.).

On to “TAAAGATGCAATGACTACTAATCAACGTACCATGTACTCCCGGAGTCACCTAGTGCAG”, for which the binding signal is 4660 fluorescence intensity (a.u.).

For the sequence “AAATTTATGTAATTATTATTTATTTTATTGTGACTTGATTCGGAGTCACCTAGTGCAG”, the binding signal was 8590 fluorescence intensity (a.u.).

As to “TAACGGGTTGACTCAATCACTGAAATTGTTTAATGGTAGACGGAGTCACCTAGTGCAG”, the binding signal is 7170 fluorescence intensity (a.u.).

“CCAATGACTGCTATTGTGATGACTTTGGGAGGAAAAGGAGCGGAGTCACCTAGTGCAG”: the binding signal was 16400 fluorescence intensity (a.u.).

Consider “ATTACTGGTTAACCGATTGAAGTGTCTCATTGACAAGAGGCGGAGTCACCTAGTGCAG”, for which the binding signal is 3470 fluorescence intensity (a.u.).

With “ATAGTTATTTGATCAGTTATTGTTACACTATACATTGACACGGAGTCACCTAGTGCAG”, the binding signal is 4450 fluorescence intensity (a.u.).

Consider “GAAATTGAAGATGATGTGACTGAAAAGTTGTGTATATGACCGGAGTCACCTAGTGCAG”, for which the binding signal is 17200 fluorescence intensity (a.u.).

Take “TTAGTGTTAATTATATTAAGTAATTTAGTTAGTTAAGAGACGGAGTCACCTAGTGCAG”: the binding signal was 23700 fluorescence intensity (a.u.).

On to “CTGATAGATAATGACCTAGCTTGACTATTCTGATAGATACCGGAGTCACCTAGTGCAG”, for which the binding signal was 26300 fluorescence intensity (a.u.).

For the sequence “TTGATCATTAACGAGGTAATTAATTTAATCTAATCCAATCCGGAGTCACCTAGTGCAG”, the binding signal was 22200 fluorescence intensity (a.u.).

Turning to “AGCTGCTAATTACTGTACACCTGTCACCTCTGGCAGCAGACGGAGTCACCTAGTGCAG”, the binding signal was 18200 fluorescence intensity (a.u.).

Take “TCTCTTGATTTCTTTTCTCTCTCAACTCTGTTCTGTTATCCGGAGTCACCTAGTGCAG”: the binding signal is 9300 fluorescence intensity (a.u.).

In the case of “GGATTAATTAGGCTTAATAGGTTCGTCTCACAGTTTACAGCGGAGTCACCTAGTGCAG”, the binding signal is 39100 fluorescence intensity (a.u.).

Take “AATTTAAATTTAAACAGGATGGCAAACACACCCCATATCCCGGAGTCACCTAGTGCAG”: the binding signal was 23800 fluorescence intensity (a.u.).

On to “CTGGAATGAGTGGTGGTTGATTGTTTAGTGTTTACTGTTCCGGAGTCACCTAGTGCAG”, for which the binding signal is 18500 fluorescence intensity (a.u.).

Take “TTAATGTAGTTATCAATTTCGTTCATTTGCTTGAATTGGACGGAGTCACCTAGTGCAG”: the binding signal was 4130 fluorescence intensity (a.u.).

Consider “TTGCTACCATTCAATCAACATCTGGAGCAGATTACATATGCGGAGTCACCTAGTGCAG”, for which the binding signal is 10400 fluorescence intensity (a.u.).

“GTGTCAATTTTAATAGAATAGAATGGAATCATTGGATACTCGGAGTCACCTAGTGCAG”: the binding signal was 5620 fluorescence intensity (a.u.).

For the sequence “ACGTAAACTGAAATTTACAAAGGGACTATACTCCAGTAATCGGAGTCACCTAGTGCAG”, the binding signal is 11100 fluorescence intensity (a.u.).

Consider “AACAATTGACAAACTGATTCTGCTCGCCTCTGTCCCCTTTCGGAGTCACCTAGTGCAG”, for which the binding signal was 46800 fluorescence intensity (a.u.).

On to “CATGGATGGATTGGATGCTGTTGCTATGGCCGCGAGGTTGCGGAGTCACCTAGTGCAG”, for which the binding signal was 4440 fluorescence intensity (a.u.).

For “GGAAATCCCAATTAGTTAATTAAGGGTGTAATTAGCAAACCGGAGTCACCTAGTGCAG”, the binding signal is 21300 fluorescence intensity (a.u.).

With “AGGGGTTGGTAATTGGCAGGGAATTCCTCCTTTACTTCGCCGGAGTCACCTAGTGCAG”, the binding signal was 15400 fluorescence intensity (a.u.).

For “GCCCTTGCGGATTGATGAGATCCTCTGCAGTCACTTTACCCGGAGTCACCTAGTGCAG”, the binding signal is 5400 fluorescence intensity (a.u.).

On to “CTTTCTTTGACTGTTGCCTTTTATTTTGTGCAGGTTGTATCGGAGTCACCTAGTGCAG”, for which the binding signal is 4690 fluorescence intensity (a.u.).

Consider “GGATTTAGATTGAGATCTTTGGCACAGCTTAGACTCAACACGGAGTCACCTAGTGCAG”, for which the binding signal was 43000 fluorescence intensity (a.u.).
